This passage reports binding signal results from PMC9911399, “Two distinct binding modes provide the RNA-binding protein RbFox with extraordinary sequence specificity”.

Sequences and labels used below:
T1: RBFOX1 RRM (Homo sapiens, UniProt Q9NWB1 109-208)
T1 sequence: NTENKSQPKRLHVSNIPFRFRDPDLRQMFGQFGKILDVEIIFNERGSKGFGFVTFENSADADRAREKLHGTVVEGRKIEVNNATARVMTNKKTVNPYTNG

B1: AAAGGUU (DNA:RNA)
RNA: GGGAGACCGGAAUUCAGAUUGUCCAAAGGUUUUAAAUCCCGUCGUAGCCACCA
DNA 1: CAATCTGAATTCCGGTCTCCC
DNA 2: TGGTGGCTACGACGGGATT
B2: UACCGCG (DNA:RNA)
RNA: B1 RNA with A25U, A27C, G28C, U30C, U31G
DNA 1: CAATCTGAATTCCGGTCTCCC
DNA 2: TGGTGGCTACGACGGGATT
B3: CGAACAC (DNA:RNA)
RNA: B1 RNA with A25C, A26G, G28A, G29C, U30A, U31C
DNA 1: CAATCTGAATTCCGGTCTCCC
DNA 2: TGGTGGCTACGACGGGATT
B4: CGAGUCU (DNA:RNA)
RNA: B1 RNA with A25C, A26G, G29U, U30C
DNA 1: CAATCTGAATTCCGGTCTCCC
DNA 2: TGGTGGCTACGACGGGATT
B5: UCCAGCC (DNA:RNA)
RNA: B1 RNA with A25U, A26C, A27C, G28A, U30C, U31C
DNA 1: CAATCTGAATTCCGGTCTCCC
DNA 2: TGGTGGCTACGACGGGATT
B6: GGGUGAA (DNA:RNA)
RNA: B1 RNA with A25G, A26G, A27G, G28U, U30A, U31A
DNA 1: CAATCTGAATTCCGGTCTCCC
DNA 2: TGGTGGCTACGACGGGATT
B7: CUAAGAC (DNA:RNA)
RNA: B1 RNA with A25C, A26U, G28A, U30A, U31C
DNA 1: CAATCTGAATTCCGGTCTCCC
DNA 2: TGGTGGCTACGACGGGATT
B8: GGGUUCU (DNA:RNA)
RNA: B1 RNA with A25G, A26G, A27G, G28U, G29U, U30C
DNA 1: CAATCTGAATTCCGGTCTCCC
DNA 2: TGGTGGCTACGACGGGATT
B9: UGACCCU (DNA:RNA)
RNA: B1 RNA with A25U, A26G, G28C, G29C, U30C
DNA 1: CAATCTGAATTCCGGTCTCCC
DNA 2: TGGTGGCTACGACGGGATT
B10: CCCGGAG (DNA:RNA)
RNA: B1 RNA with A25C, A26C, A27C, U30A, U31G
DNA 1: CAATCTGAATTCCGGTCTCCC
DNA 2: TGGTGGCTACGACGGGATT
B11: GCAGUCG (DNA:RNA)
RNA: B1 RNA with A25G, A26C, G29U, U30C, U31G
DNA 1: CAATCTGAATTCCGGTCTCCC
DNA 2: TGGTGGCTACGACGGGATT
B12: UGAAUCA (DNA:RNA)
RNA: B1 RNA with A25U, A26G, G28A, G29U, U30C, U31A
DNA 1: CAATCTGAATTCCGGTCTCCC
DNA 2: TGGTGGCTACGACGGGATT
B13: ACAGAAA (DNA:RNA)
RNA: B1 RNA with A26C, G29A, U30A, U31A
DNA 1: CAATCTGAATTCCGGTCTCCC
DNA 2: TGGTGGCTACGACGGGATT
B14: UAACUGU (DNA:RNA)
RNA: B1 RNA with A25U, G28C, G29U, U30G
DNA 1: CAATCTGAATTCCGGTCTCCC
DNA 2: TGGTGGCTACGACGGGATT
B15: GACCAUC (DNA:RNA)
RNA: B1 RNA with A25G, A27C, G28C, G29A, U31C
DNA 1: CAATCTGAATTCCGGTCTCCC
DNA 2: TGGTGGCTACGACGGGATT
B16: AGGGUGA (DNA:RNA)
RNA: B1 RNA with A26G, A27G, G29U, U30G, U31A
DNA 1: CAATCTGAATTCCGGTCTCCC
DNA 2: TGGTGGCTACGACGGGATT
B17: UUAAUGA (DNA:RNA)
RNA: B1 RNA with A25U, A26U, G28A, G29U, U30G, U31A
DNA 1: CAATCTGAATTCCGGTCTCCC
DNA 2: TGGTGGCTACGACGGGATT
B18: AUUCUCU (DNA:RNA)
RNA: B1 RNA with A26U, A27U, G28C, G29U, U30C
DNA 1: CAATCTGAATTCCGGTCTCCC
DNA 2: TGGTGGCTACGACGGGATT
B19: GAAAAUC (DNA:RNA)
RNA: B1 RNA with A25G, G28A, G29A, U31C
DNA 1: CAATCTGAATTCCGGTCTCCC
DNA 2: TGGTGGCTACGACGGGATT
B20: GAUUAUU (DNA:RNA)
RNA: B1 RNA with A25G, A27U, G28U, G29A
DNA 1: CAATCTGAATTCCGGTCTCCC
DNA 2: TGGTGGCTACGACGGGATT
B21: GACAUUC (DNA:RNA)
RNA: B1 RNA with A25G, A27C, G28A, G29U, U31C
DNA 1: CAATCTGAATTCCGGTCTCCC
DNA 2: TGGTGGCTACGACGGGATT
B22: GAGAGAU (DNA:RNA)
RNA: B1 RNA with A25G, A27G, G28A, U30A
DNA 1: CAATCTGAATTCCGGTCTCCC
DNA 2: TGGTGGCTACGACGGGATT
B23: GGGAUUG (DNA:RNA)
RNA: B1 RNA with A25G, A26G, A27G, G28A, G29U, U31G
DNA 1: CAATCTGAATTCCGGTCTCCC
DNA 2: TGGTGGCTACGACGGGATT
B24: CGACUGU (DNA:RNA)
RNA: B1 RNA with A25C, A26G, G28C, G29U, U30G
DNA 1: CAATCTGAATTCCGGTCTCCC
DNA 2: TGGTGGCTACGACGGGATT
B25: GGCCAAG (DNA:RNA)
RNA: GGGAGACCGGAAUUCAGAUUGUCCGGCCAAGUUAAAUCCCGUCGUAGCCACCA
DNA 1: CAATCTGAATTCCGGTCTCCC
DNA 2: TGGTGGCTACGACGGGATT
B26: CUAUGUU (DNA:RNA)
RNA: B1 RNA with A25C, A26U, G28U
DNA 1: CAATCTGAATTCCGGTCTCCC
DNA 2: TGGTGGCTACGACGGGATT
B27: ACCUUGC (DNA:RNA)
RNA: B1 RNA with A26C, A27C, G28U, G29U, U30G, U31C
DNA 1: CAATCTGAATTCCGGTCTCCC
DNA 2: TGGTGGCTACGACGGGATT
B28: CUUGAGA (DNA:RNA)
RNA: B1 RNA with A25C, A26U, A27U, G29A, U30G, U31A
DNA 1: CAATCTGAATTCCGGTCTCCC
DNA 2: TGGTGGCTACGACGGGATT
B29: ACGCUCC (DNA:RNA)
RNA: B1 RNA with A26C, A27G, G28C, G29U, U30C, U31C
DNA 1: CAATCTGAATTCCGGTCTCCC
DNA 2: TGGTGGCTACGACGGGATT
B30: AUCUUUA (DNA:RNA)
RNA: B1 RNA with A26U, A27C, G28U, G29U, U31A
DNA 1: CAATCTGAATTCCGGTCTCCC
DNA 2: TGGTGGCTACGACGGGATT
B31: CAAUGCC (DNA:RNA)
RNA: B1 RNA with A25C, G28U, U30C, U31C
DNA 1: CAATCTGAATTCCGGTCTCCC
DNA 2: TGGTGGCTACGACGGGATT

Positions count from the first letter of the chain named. Some of the results follow.

The target in the test is T1, RBFOX1 RRM. As to the kind of experiment: EMSA; HiTS-Eq, 1 nM pool, 10 min; buffer printed only for the single-RNA assays: 10 mM Tris pH 7.5, 150 mM NaCl, 3.4 mM EDTA, 0.001% NP-40, 30 C. The conditions noted are these: tags: His6 N-terminal (pET28a); label: 5' 32P. An outline of the steps: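 Purified RbFox RRM, wild type or mutant, was incubated for 10 min in 50 µL with 1 nM of a 5′-radiolabelled RNA pool carrying 7 randomized nucleotides, whose flanks were annealed to DNA oligonucleotides, over a series of increasing protein concentrations. Unbound RNA was resolved on 8% native PAGE, cut out, reverse-transcribed, barcoded by PCR and sequenced on an Illumina HiSeq 2500. Relative association constants were derived from changes in read counts for each RNA species versus the control reaction and normalised to the cognate motif.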
A general note: Mobility shift assays separate free from complexed probe on a gel.
In the case of B1, the binding signal was 0.00684 KA relative to UGCAUGU.

Consider B2, for which the binding signal was 0.00774 KA relative to UGCAUGU.

As for B3, the binding signal was 0.00254 KA relative to UGCAUGU.

For the molecule B4, the binding signal was 0.0134 KA relative to UGCAUGU.

For B5, the binding signal is 0.0092 KA relative to UGCAUGU.

On to B6, for which the binding signal is 0.0139 KA relative to UGCAUGU.

Regarding B7, the binding signal was 0.00639 KA relative to UGCAUGU.

Consider B8, for which the binding signal is 0.0166 KA relative to UGCAUGU.

With B9, the binding signal is 0.00315 KA relative to UGCAUGU.

For the molecule B10, the binding signal is 0.00493 KA relative to UGCAUGU.

Take B11: the binding signal was 0.0138 KA relative to UGCAUGU.

For B12, the binding signal was 0.0114 KA relative to UGCAUGU.

B13: the binding signal was 0.000293 KA relative to UGCAUGU.

As to B14, the binding signal is 0.0136 KA relative to UGCAUGU.

B15: the binding signal is 0.00408 KA relative to UGCAUGU.

In the case of B16, the binding signal was 0.0166 KA relative to UGCAUGU.

For the molecule B17, the binding signal is 0.00982 KA relative to UGCAUGU.

As for B18, the binding signal was 0.00662 KA relative to UGCAUGU.

Consider B19, for which the binding signal was 0.00432 KA relative to UGCAUGU.

B20: the binding signal is 0.00707 KA relative to UGCAUGU.

B21: the binding signal was 0.00535 KA relative to UGCAUGU.

For B22, the binding signal was 0.0118 KA relative to UGCAUGU.

For B23, the binding signal is 0.0593 KA relative to UGCAUGU.

As for B24, the binding signal is 0.0174 KA relative to UGCAUGU.

Regarding B25, the binding signal is 0.00894 KA relative to UGCAUGU.

Consider B26, for which the binding signal is 0.0104 KA relative to UGCAUGU.

For B27, the binding signal was 0.0134 KA relative to UGCAUGU.

On to B28, for which the binding signal was 0.0141 KA relative to UGCAUGU.

As for B29, the binding signal was 0.0063 KA relative to UGCAUGU.

As for B30, the binding signal is 0.0011 KA relative to UGCAUGU.

Regarding B31, the binding signal is 0.00351 KA relative to UGCAUGU.
